Laboratory results taken from PubChem BioAssay AID686979 (National Center for Advancing Translational Sciences (NCATS), 2013).
Screen size: about 420,000 compounds; about 50,000 (12%) were called active. Inconclusive results, whose numbers are uncertain, are shown with a selection of clear calls. Calls come from the whole dose curve; as a rule, active = well fitted inhibition curve with a large enough effect; inconclusive = small, poorly fitted or top-dose-only effect; inactive = flat fitted curve, though single readings scatter. No potency is given beside an inconclusive call; the fits are too rough.

Assay: qHTS for Inhibitors of human tyrosyl-DNA phosphodiesterase 1 (TDP1): qHTS in cells in presence of CPT; note: nearly all actives have a fitted effect of over 55% in size
Conditions: chicken DT40 Tdp1-/-;hTDP1 cells + 20 nM CPT, ATP luminescence, 48 h; series mostly up to 46.2 µM
Procedure, shortened: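 Cell growth measured by CellTiter-Glo luminescence after a minimum 48 h, 37 C compound exposure with 20 nM CPT in Tdp1-knockout DT40 cells stably expressing hTDP1, seeded 400/well; qHTS titration format.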
Potency is the fitted concentration of half-maximal effect; tags give direction and shape of the fitted curve.

Row | SMILES | Potency
1 | CCc1ccc(NC(=O)C2CCN(S(=O)(=O)c3c(C)noc3C)CC2)cc1 | inconclusive [inhibitor, single point]
2 | CCC(=O)Nc1ccccc1-c1nc2ccccc2n(CC(=O)Nc2ccc(C)c(C)c2)c1=O | inconclusive [inhibitor, single point]
3 | CCCCOc1ccc(OCCCN2CCOCC2)cc1 | inconclusive [inhibitor, single point]
4 | CCOC(=O)c1cnc(SC)nc1Sc1cc(Cl)ccc1Cl | active: 20.6 µM
5 | O=C(Cc1cccs1)N(CC1CCCO1)C1(C(=O)NC2CCCC2)CCCCC1 (stereo not drawn) | inconclusive [inhibitor, single point]
6 | COc1ccc(C2=NN(CC(=O)NCCc3ccccc3)C(=O)CC2)cc1 | inactive
7 | C/C(CC1CC(C)OC1=O)=N\NC(N)=S (stereo not drawn) | inactive
8 | O=C(NCc1cccnc1)c1c(O)c2cccc3c2n(c1=O)CCC3 | inconclusive [inhibitor, single point]
9 | Cc1cc(N2CCCCC2)ccc1[N+](=O)[O-] | inconclusive [inhibitor, single point]
10 | Cn1c(=O)c2cc(C(=O)Nc3cccc(C#N)c3)sc2c2ccccc21 | inconclusive [inhibitor, single point]
11 | CC1(C)CC(NS(=O)(=O)c2ccc(C(C)(C)C)cc2)CC(C)(C)N1 | inactive
12 | CCOC(=O)C1C(=O)C=C(c2cccs2)CC1c1ccccc1C (stereo not drawn) | inconclusive [inhibitor, partial curve]
13 | COc1ccc(N2CCN(C(=O)CSc3ccc([N+](=O)[O-])cc3)CC2)cc1 | inconclusive [inhibitor, single point]
14 | COc1ccc(-n2nc(C(=O)NCC(=O)N3CCN(c4ccccn4)CC3)c3ccccc3c2=O)c(OC)c1 | inconclusive [inhibitor, single point]
15 | Cc1ccc(S(=O)(=O)NCCNC(=O)CN2CCOCC2)cc1 | inactive
16 | COc1cc(NC(=O)c2ccco2)c(C(=O)OCC(=O)c2c[nH]c3ccccc23)cc1OC | active: 14.6 µM
17 | O=C(Nc1ccc(F)c(Cl)c1)Nc1csc2ccccc12 | active: 5.17 µM
18 | CN1CCN(c2ncc(CN3C(=O)c4ccccc4C3=O)s2)CC1 | inconclusive [inhibitor, partial curve]
19 | COC(=O)c1ccc(NC(=O)NC(C)c2c(-n3cccc3)sc(C)c2C)cc1 (stereo not drawn) | inconclusive [inhibitor, single point]
20 | N#CC1=C(N)Oc2c(ccc3ccccc23)C1c1cccs1 (stereo not drawn) | active: 0.562 µM
21 | Cc1cc(C)c2c(n1)sc1c(N3CCN(C)CC3)ncnc12 | inconclusive [inhibitor, single point]
22 | CC(=O)N1c2ccc(S(=O)(=O)NCC3CCC(C(=O)NCc4ccccc4)CC3)cc2CC1C (stereo not drawn) | inconclusive [inhibitor, single point]
23 | CCOc1ccc2nc(SCC(=O)c3cccs3)sc2c1 | inconclusive [inhibitor, single point]

Row | SMILES | Potency
24 | CC(C)(C)Nc1nc(NC(C)(C)C)nc(-n2ccnc2)n1 | inconclusive [inhibitor, single point]
25 | CC(=O)Nc1ccc2nc(SCC(=O)Nc3ccc(N4CCOCC4)c(Cl)c3)sc2c1 | inconclusive [inhibitor, single point]
26 | COC(=O)[C@]12CCCCC=C1N(Cc1ccccc1)C(=O)[C@H](CC(=O)N1CCN(C(=O)c3ccco3)CC1)C2 | inconclusive [inhibitor, single point]
27 | COc1ccc(C2=Nc3nc(-c4ccccc4)cn3C(c3ccc(OC)cc3)C2)cc1 (stereo not drawn) | inactive
28 | Clc1cccc(Oc2cnns2)c1Cl | inconclusive [inhibitor, single point]
29 | CCCC/C(O)=C1\C(=O)CC(C)(C)CC1=NCCCCCC(=O)O | inactive
30 | N/C(COc1ccccc1)=N\NC(=O)c1cccnc1Oc1ccccc1 | inconclusive [inhibitor, single point]
31 | CC1(C)OC(=O)C(=NNc2ccc(Cl)cc2)C(=O)O1 | inconclusive [inhibitor, single point]
32 | O=C(NC1CCCC1)c1ccc(CSc2nc3cccnc3n2Cc2ccccc2)cc1 | inconclusive [inhibitor, single point]
33 | CCN(Cc1ccccc1OC)CC1CCCN(CCc2cccc(OC)c2)C1 (stereo not drawn) | active: 14.6 µM
34 | O=C(c1ccco1)N1N=C(c2ccc(Cl)cc2)CC1(O)C(F)(F)F (stereo not drawn) | inconclusive [inhibitor, single point]
35 | CN(Cc1cccnc1)Cc1cn(C)nc1-c1cccc(Cl)c1 | inconclusive [inhibitor, single point]
36 | O=C(OCc1ccccc1)N1CCC2CC1c1cc(N3CCN(S(=O)(=O)c4cccc(C(F)(F)F)c4)CC3)ccc12 (stereo not drawn) | inconclusive [inhibitor, partial curve]
37 | CCN(CC)c1ncnc2c1cnn2Cc1ccc(C)cc1 | inconclusive [inhibitor, single point]
38 | COc1ccc(CCNC(=O)CSCc2nc(-c3cccc(C)c3)oc2C)cc1OC | active: 20.6 µM
39 | O=C(NCc1ccccc1)c1ccc2c(c1)N(Cc1ccc(F)cc1)CCS2 | inconclusive [inhibitor, single point]
40 | CN(C)CCNC(=O)c1ccc(COc2ccc(Cl)cc2Cl)cc1 | inconclusive [inhibitor, single point]
41 | COc1ccc(Cl)cc1NC(=O)c1sc2nc(-c3ccc(OC)c(OC)c3)ccc2c1N | inconclusive [inhibitor, single point]
42 | COC(=O)/C(=C1\OC(=O)C(c2ccccc2)C1=O)c1ccccc1 (stereo not drawn) | inactive
43 | O=C(NNc1nc2c(F)cccc2s1)c1ccccc1 | inactive
44 | Cc1ccc(Cc2c(-c3ccc(C)cc3)nc3c4ccccc4ccn23)cc1 | inconclusive [inhibitor, single point]
45 | CCCN(/C=N/c1sc2c(c1C#N)CCCCC2)CCC | inconclusive [inhibitor, single point]
46 | CC(C)c1ccccc1OCCCCN1CCCCC1 | inconclusive [inhibitor, single point]

Row | SMILES | Potency
47 | COC(=O)c1sc2cccc(F)c2c1S(=O)(=O)Nc1cc(C)c(Cl)cc1OC | inconclusive [inhibitor, single point]
48 | CCNC(=O)C1(C)CCCN1Cc1c(F)cccc1F (stereo not drawn) | inconclusive [inhibitor, single point]
49 | COc1cccc(C=O)c1OC(=O)N1CCOCC1 | inconclusive [inhibitor, partial curve, poor fit]
50 | CCCn1c(CN2CCN(C(=O)OCC)CC2)nc2cc(NC(C)=O)ccc21 | inconclusive [inhibitor, single point]
51 | COc1ccc(-n2c(O)c(/C=N/NS(=O)(=O)c3ccc(C)cc3)c3ccccc3c2=O)cc1OC | active: 18.4 µM
52 | CCc1cccc(C)c1NC(=O)CN1C(=O)c2ccccc2Sc2ncccc21 | inconclusive [inhibitor, partial curve]
53 | COc1ccc(-c2nnn(CC(=O)N(CC(=O)NC3CCCC3)c3ccccc3F)n2)cc1OC | inconclusive [inhibitor, single point]
54 | CN(CC(=O)Nc1ccc(N2CCOCC2)cc1)C(=O)CCc1cc(C(C)(C)C)c(O)c(C(C)(C)C)c1 | inconclusive [inhibitor, single point]
55 | CCOC(=O)c1c(NC(=O)COc2cccc3c2CCN(C)C3=O)sc2c1CCC2 | active: 13 µM
56 | COc1ccccc1-c1nn(-c2ccccc2)cc1C(=O)N1CCc2ccccc2C1 | inconclusive [inhibitor, single point]
57 | Cc1cccc(NC(=O)C(C)Sc2ncnc3sccc23)c1 (stereo not drawn) | active: 18.4 µM
58 | CN(C)c1ccc(/C=C/C#N)cc1 | inactive
59 | CCCNC(=O)C1CCC(Cn2c(=O)c3sccc3n(CC(=O)N3CCCC3)c2=O)CC1 (stereo not drawn) | inactive
60 | O=S(=O)(c1ccc(Cl)c2ccccc12)N1CCCC1 | inactive
61 | CCOc1ccccc1Nc1nnc(SCC(=O)Nc2cccc(S(=O)(=O)NC3=NCCCCC3)c2)s1 | active: 23.1 µM
62 | CC(C)(C)c1ccc(Cn2cnc(-c3ccc([N+](=O)[O-])cc3)c2)cc1 | active: 23.1 µM
63 | COc1cc(C(=O)Nc2ccc(NC(=O)C3CCCCC3)nc2)cc(OC)c1OC | inconclusive [inhibitor, partial curve]
64 | COc1ccc(CNC(=O)c2cc3oc4ccccc4c3n2C)cc1OC | inconclusive [inhibitor, single point]
65 | Cc1ccccc1C(=O)Nc1cccc(C(=O)N/N=C/c2cc(Cl)cc([N+](=O)[O-])c2O)c1 | inconclusive [inhibitor, single point]
66 | O=C(NCC1(N2CCCCC2)CCCCC1)c1cccc(S(=O)(=O)Nc2ccccc2Cl)c1 | inconclusive [inhibitor, single point]
67 | CCCNC(=O)CN1C(=O)c2c(c3ccccc3n2C)C1c1ccc(OC)cc1 (stereo not drawn) | inconclusive [inhibitor, single point]
68 | CN(CC(=O)Nc1ccc(Cl)c(C(F)(F)F)c1)C(=O)CCc1nc2ccccc2c(=O)[nH]1 | inconclusive [inhibitor, partial curve]
